{
  "source": "PubChem BioAssay AID504332",
  "about": "(National Center for Advancing Translational Sciences (NCATS), 2011)",
  "note": "Out of some 350,000 compounds screened, about 31,000 (8.9%) were called active. The inconclusive results got no clear call from the source; some entries with a clear call stand among them for comparison. The call rests on the fitted dose curve; in most records, active means well fitted inhibition curve with a large enough effect; inconclusive means small, poorly fitted or top-dose-only effect; inactive means no such curve, though single readings can be large or run the other way. Where the call is inconclusive, the potency comes from a doubtful curve fit. On the % scale 0 is the no-effect control and ±100 the full control effect; potency means the concentration at half of the fitted maximal effect; tags describe the fitted curve by direction and shape.",
  "data": [
    {"molecular_target": "Histone-lysine N-methyltransferase EHMT2 (Homo sapiens) (UniProt Q96KQ7)", "sequence (Q96KQ7 whole entry, looked up)": "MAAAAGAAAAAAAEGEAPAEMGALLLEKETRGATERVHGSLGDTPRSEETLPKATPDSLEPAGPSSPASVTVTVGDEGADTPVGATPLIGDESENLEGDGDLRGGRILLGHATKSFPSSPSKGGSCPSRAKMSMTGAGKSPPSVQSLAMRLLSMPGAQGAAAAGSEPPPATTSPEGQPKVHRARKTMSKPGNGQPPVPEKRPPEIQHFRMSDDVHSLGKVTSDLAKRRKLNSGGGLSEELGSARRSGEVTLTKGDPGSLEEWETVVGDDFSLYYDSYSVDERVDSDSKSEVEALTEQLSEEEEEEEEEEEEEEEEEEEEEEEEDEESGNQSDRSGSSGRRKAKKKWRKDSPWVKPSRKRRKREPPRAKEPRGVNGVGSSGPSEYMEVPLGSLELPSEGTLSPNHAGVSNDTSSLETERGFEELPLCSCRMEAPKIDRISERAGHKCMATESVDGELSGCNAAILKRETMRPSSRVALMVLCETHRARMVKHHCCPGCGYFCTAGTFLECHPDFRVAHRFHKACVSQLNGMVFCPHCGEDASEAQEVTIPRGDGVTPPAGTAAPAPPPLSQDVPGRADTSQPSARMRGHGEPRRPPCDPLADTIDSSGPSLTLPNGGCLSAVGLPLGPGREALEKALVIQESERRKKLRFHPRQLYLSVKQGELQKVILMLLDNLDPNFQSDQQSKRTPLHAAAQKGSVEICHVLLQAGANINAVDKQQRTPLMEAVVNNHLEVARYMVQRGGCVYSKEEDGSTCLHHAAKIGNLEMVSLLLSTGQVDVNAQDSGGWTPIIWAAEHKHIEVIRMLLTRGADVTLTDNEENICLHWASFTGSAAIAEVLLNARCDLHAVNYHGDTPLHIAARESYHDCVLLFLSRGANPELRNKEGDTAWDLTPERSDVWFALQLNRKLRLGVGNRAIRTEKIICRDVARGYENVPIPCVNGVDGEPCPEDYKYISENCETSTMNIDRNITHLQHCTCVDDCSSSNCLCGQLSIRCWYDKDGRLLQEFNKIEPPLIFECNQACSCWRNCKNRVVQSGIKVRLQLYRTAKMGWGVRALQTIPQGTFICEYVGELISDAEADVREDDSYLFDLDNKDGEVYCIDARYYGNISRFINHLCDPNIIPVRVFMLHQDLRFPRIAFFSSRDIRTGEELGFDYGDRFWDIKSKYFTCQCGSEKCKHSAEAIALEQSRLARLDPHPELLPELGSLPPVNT", "test": "qHTS Assay for Inhibitors of Histone Lysine Methyltransferase G9a; further: nearly all actives have a fitted effect of over 75% in size", "details": "G9a H3K9 monomethylation, AlphaScreen, 2 h; activity, negative = inhibition: at 59 µM (top of the series) unless noted", "summary_of_the_method": "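AlphaScreen read-out: biotin-H3K9 peptide (500 nM) methylation by 20 nM enzyme with 20 uM SAM, 2 h at room temperature after 15 min compound preincubation; anti-monomethyl H3K9 antibody plus donor/acceptor beads, 10 min dark.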", "values": [
      {"smiles": "CC1CCN(C(=O)COC(=O)c2ccc3c(c2)C(=O)N(Cc2ccco2)C3=O)CC1", "Potency": "active: 56.2 µM"},
      {"smiles": "NC(=O)C1CC(=O)N(c2ccc(OCC(=O)Nc3cccc(C(F)(F)F)c3)cc2)C1", "note": "(stereo not given)", "Potency": "inconclusive: 89.1 µM [inhibitor, single point]"},
      {"smiles": "COc1cc(S(=O)(=O)NCC2COCCO2)ccc1-n1cnnn1", "note": "(stereo not given)", "Potency": "inconclusive: 0.891 µM [inhibitor, full curve, poor fit]"},
      {"smiles": "Cc1ccc(NC(=O)CN2C(=O)NC(Cc3ccccc3)C2=O)cc1", "note": "(stereo not given)", "Potency": "inconclusive: 44.7 µM [inhibitor, partial curve, poor fit]"},
      {"smiles": "CCOC(=O)C(c1ccccc1)N1CCN(c2ccc(OC)cc2)CC1", "note": "(stereo not given)", "activity, negative = inhibition": "inconclusive: -68.8% [inhibitor]"},
      {"smiles": "O=C(CSc1n[nH]c(-c2ccncc2)n1)Nc1ccccc1C(F)(F)F", "Potency": "active: 25.1 µM"},
      {"smiles": "C/C(=N/NC(=O)c1ccccn1)c1ccco1", "Potency": "inconclusive: 3.98 µM [inhibitor, full curve, poor fit]"},
      {"smiles": "COc1ccc(Oc2c(-c3ccc(O)cc3O)n[nH]c2C)cc1", "Potency": "inconclusive: 50.1 µM [inhibitor, partial curve, poor fit]"},
      {"smiles": "O=C(NCCNCc1ccc(F)cc1)c1ccco1", "Potency": "active: 7.94 µM"},
      {"smiles": "CCOc1ccc(N=Nc2cc(C(C)C)ccc2O)cc1", "Potency": "active: 20 µM"},
      {"smiles": "Cc1nc2cc(N)ccc2n1-c1ccccc1", "Potency": "inconclusive: 56.2 µM [inhibitor, partial curve, poor fit]"},
      {"smiles": "Oc1ccc2ccccc2c1C1Nc2cccc3cccc(c23)N1", "Potency": "active: 5.01 µM"},
      {"smiles": "Cc1ccc(CNC(=O)C2CCN(S(=O)(=O)c3c(C)noc3/C=C/c3cccs3)CC2)cc1", "activity, negative = inhibition": "inactive: 17.1%"},
      {"smiles": "O=S(=O)(NCc1ccc2c(c1)OCO2)c1cccc(S(=O)(=O)N2CCOCC2)c1", "Potency": "active: 39.8 µM"},
      {"smiles": "CCOc1ccc(NC(=O)CN(c2ccc(CC)cc2)S(=O)(=O)c2c(C)noc2C)cc1", "activity, negative = inhibition": "inactive: 4.99%"},
      {"smiles": "COC1=CC(=Cc2c(N)n3nc(CC(=O)N4CCOCC4)sc3nc2=O)C=C(OC)C1=O", "Potency": "inconclusive: 8.91 µM [inhibitor, full curve]"},
      {"smiles": "CCN1CCN(C(=O)/C=C/c2ccc(OC)cc2)CC1", "Potency": "inconclusive: 50.1 µM [inhibitor, partial curve]"},
      {"smiles": "CC(=O)Oc1ccc(-c2csc(Nc3cccnc3)n2)cc1", "activity, negative = inhibition": "inactive: 6.55%"},
      {"smiles": "CCCCN1C(=O)c2ccc(C(=O)Nc3ccccc3N3CCOCC3)cc2C1=O", "Potency": "inconclusive: 11.2 µM [inhibitor, partial curve, poor fit]"},
      {"smiles": "O=C(O)CCC(=O)N(Cc1ccco1)C1CC(=O)N(c2ccccc2)C1=O", "note": "(stereo not given)", "Potency": "inconclusive: 79.4 µM [inhibitor, single point]"},
      {"smiles": "O=CN1CCc2scc[n+]2-c2ccccc21", "Potency": "inconclusive: 10 µM [inhibitor, partial curve, poor fit]"},
      {"smiles": "Cc1ccc(CNC(=O)Cn2c(=O)cc(C(F)(F)F)c3c(C)nn(C)c32)cc1", "activity, negative = inhibition": "inactive: 8.48%"},
      {"smiles": "COC(=O)C1=C(c2ccccc2)c2ccccc2S(=O)(=O)N1CC(=O)Nc1ccc(F)c(F)c1", "Potency": "inconclusive: 35.5 µM [inhibitor, partial curve, poor fit]"},
      {"smiles": "O=C(c1noc2c1CCCC2)N1CCCCC1", "Potency": "inconclusive: 1.12 µM [inhibitor, full curve, poor fit]"},
      {"smiles": "O=C(OCC(=O)N1CCCc2ccccc21)c1ccccc1[N+](=O)[O-]", "activity, negative = inhibition": "inconclusive: -72.5% [inhibitor] [at 2.33 µM]"},
      {"smiles": "CCCCn1c(N)c(N(CCOC)C(=O)c2cc(-c3ccncc3)nc3ccccc23)c(=O)[nH]c1=O", "Potency": "inconclusive: 89.1 µM [inhibitor, single point]"},
      {"smiles": "O=C(NCc1cccc(Cl)c1)c1ccc(NC(=O)N2CC3CCCN3c3ccccc32)cc1", "note": "(stereo not given)", "Potency": "active: 10 µM"},
      {"smiles": "Cc1c(NS(=O)(=O)c2cccc3nsnc23)c(=O)n(-c2ccccc2)n1C", "Potency": "inconclusive: 22.4 µM [inhibitor, single point]"},
      {"smiles": "CCN(CC)S(=O)(=O)c1cccc(NC(=O)CN(C)Cc2cccc(OC)c2)c1", "activity, negative = inhibition": "inactive: -115% [at 12.7 µM]"},
      {"smiles": "Cc1ccc(CNC(=O)CSc2ncccn2)cc1", "Potency": "inconclusive: 2.51 µM [inhibitor, partial curve, poor fit]"},
      {"smiles": "CCOC(=O)c1[nH]c(C)c(C(=O)N2CCCC(Nc3ccc(C)c(C)c3)C2)c1C", "note": "(stereo not given)", "Potency": "inconclusive: 10 µM [inhibitor, partial curve, poor fit]"},
      {"smiles": "Cc1cccc(OCc2nnc(SCC(=O)N(C(C)C)C(C)C)n2Cc2ccco2)c1C", "Potency": "inconclusive: 79.4 µM [inhibitor, single point]"},
      {"smiles": "CCn1c(-c2ccc(F)cc2)cnc1SCC(=O)N1CCc2ccccc21", "Potency": "inconclusive: 28.2 µM [inhibitor, single point]"},
      {"smiles": "O=C(COC(=O)CCc1c[nH]c(=O)[nH]1)Nc1ccccc1Cl", "Potency": "inconclusive: 20 µM [inhibitor, single point]"},
      {"smiles": "CNC(=S)N1N=C(c2ccc(Br)cc2)CC1c1ccc(OC)cc1", "note": "(stereo not given)", "Potency": "active: 2.51 µM"},
      {"smiles": "COc1ccc(Nc2ncnc3sc(C)cc23)cc1", "Potency": "inconclusive: 89.1 µM [inhibitor, single point]"},
      {"smiles": "CCCN1C(=O)CC(c2ccco2)Sc2ccccc21", "note": "(stereo not given)", "Potency": "inconclusive: 35.5 µM [inhibitor, partial curve, poor fit]"},
      {"smiles": "CCn1cc(CNC(=O)CCc2ccc(OC)cc2)cn1", "Potency": "inconclusive: 3.16 µM [inhibitor, partial curve, poor fit]"},
      {"smiles": "COc1ccc(NC(=O)c2ccccc2)c([N+](=O)[O-])c1", "Potency": "active: 79.4 µM"},
      {"smiles": "COc1ccc(CN(Cc2ccco2)c2cnc(S(C)(=O)=O)nc2C(=O)Nc2ccc(C)c(Cl)c2)cc1", "Potency": "inconclusive: 22.4 µM [inhibitor, partial curve, poor fit]"},
      {"smiles": "COc1cc(/C=N/Nc2nc(=O)[nH]nc2C)ccc1O", "activity, negative = inhibition": "inactive: -127% [at 12.7 µM]"},
      {"smiles": "O=C(NCCCN1CCCCCC1)C1CCCN(S(=O)(=O)c2cccc3nsnc23)C1", "note": "(stereo not given)", "Potency": "inconclusive: 50.1 µM [inhibitor, partial curve]"},
      {"smiles": "Cc1ccc(CNC(=O)c2ccc(N3CCc4ccccc43)c([N+](=O)[O-])c2)cc1", "Potency": "active: 8.91 µM"},
      {"smiles": "Cc1cc(C(=O)CSc2nnnn2C)c(C)n1CCc1ccc(F)cc1", "activity, negative = inhibition": "inactive: 21.5% [at 102 µM]"},
      {"smiles": "Cc1ccc(S(=O)(=O)NCC[C@@]2(C)C3CCC2(C)C(=O)C3)cc1", "note": "(stereo not given in full)", "activity, negative = inhibition": "inactive: 34.4% [at 102 µM]"},
      {"smiles": "COc1ccc(NC(=O)Cn2nnc(-c3ccccc3NC(=O)c3ccco3)n2)cc1", "Potency": "inconclusive: 5.01 µM [inhibitor, single point]"},
      {"smiles": "CCOC(=O)C1CCCN(C(=O)CNC(=O)Cn2ccc3ccccc3c2=O)C1", "note": "(stereo not given)", "Potency": "active: 14.1 µM"},
      {"smiles": "CC1=C(C(=O)O)N2C(=O)C(NC(=O)c3nn(C)cc3Cl)C2SC1", "note": "(stereo not given)", "Potency": "inconclusive: 39.8 µM [inhibitor, single point]"},
      {"smiles": "CCOc1ccc(OCC(=O)OC(C)C(=O)Nc2ccc(Cl)cn2)cc1", "note": "(stereo not given)", "Potency": "inconclusive: 89.1 µM [inhibitor, partial curve, poor fit]"},
      {"smiles": "Cc1ccc(S(=O)(=O)N2CCCCC2)cc1C(=O)OC(C)C(=O)NCC1CCCCC1", "note": "(stereo not given)", "Potency": "inconclusive: 70.8 µM [inhibitor, partial curve, poor fit]"},
      {"smiles": "COc1ccccc1N(O)C1CC(=O)N(c2ccc(F)cc2)C1=O", "note": "(stereo not given)", "Potency": "inconclusive: 5.62 µM [inhibitor, full curve, poor fit]"},
      {"smiles": "COc1ccc(CCn2c(C)c(C(C)=O)c(C(C)=O)c2C)cc1OC", "activity, negative = inhibition": "inactive: -3.62% [at 102 µM]"},
      {"smiles": "Cc1nc([N+](=O)[O-])nn1C12CC3CC(CC(Br)(C3)C1)C2", "Potency": "inconclusive: 7.08 µM [inhibitor, full curve, poor fit]"},
      {"smiles": "Cc1cc[n+](CC(=O)c2ccc(NC(=O)c3ccccc3)cc2)c2ccccc12", "Potency": "active: 39.8 µM"},
      {"smiles": "CC1CCc2nn(CC(=O)Nc3ccccc3Cl)cc2C1", "note": "(stereo not given)", "activity, negative = inhibition": "inactive: 5.51%"},
      {"smiles": "COc1ccc(OC)c(CNC(=O)c2ccc(-c3nc(CSc4ccccc4)c(C)o3)cc2)c1", "activity, negative = inhibition": "inactive: -39.6%"},
      {"smiles": "CC(C)CCOCC(O)CCC(=O)NNC(=S)Nc1ccccc1", "note": "(stereo not given)", "Potency": "active: 28.2 µM"},
      {"smiles": "S=C(CN1CCCC1=S)NCCc1ccccc1", "Potency": "inconclusive: 44.7 µM [inhibitor, partial curve]"},
      {"smiles": "Cc1cc(NS(=O)(=O)N(C)C)ccc1C(C)C", "Potency": "inconclusive: 35.5 µM [inhibitor, single point]"},
      {"smiles": "COCCCNC(=O)/C(C#N)=C/c1ccc(OCC(=O)O)c(OC)c1", "Potency": "active: 12.6 µM"},
      {"smiles": "CCSc1ncc(/C=N/Nc2ccc(F)cc2)n1C", "Potency": "active: 25.1 µM"},
      {"smiles": "O=C(NCC(c1cccnc1)N1CCN(c2ccc(F)cc2)CC1)OCc1ccccc1", "note": "(stereo not given)", "Potency": "inconclusive: 3.16 µM [inhibitor, full curve, poor fit]"},
      {"smiles": "CN(CC(=O)Nc1cccc(S(=O)(=O)NC2=NCCC2)c1)Cc1cccc(F)c1", "activity, negative = inhibition": "inactive: 7.42% [at 12.7 µM]"},
      {"smiles": "CCCCC(=O)NC(=S)NNS(=O)(=O)c1ccccc1", "Potency": "inconclusive: 2.24 µM [inhibitor, full curve, poor fit]"},
      {"smiles": "Clc1ccccc1-c1ccc2ncnc(NCc3cccs3)c2c1", "activity, negative = inhibition": "inactive: -2.8% [at 12.7 µM]"},
      {"smiles": "CN(Cc1ccccc1)S(=O)(=O)c1ccc(-c2cnc(C3CC3)o2)cc1", "activity, negative = inhibition": "inactive: 5.77%"},
      {"smiles": "CCCn1c(C)cc(/C=C(\\C#N)C(=O)OCC(=O)N(C)c2c(N)n(Cc3ccccc3)c(=O)[nH]c2=O)c1C", "activity, negative = inhibition": "inactive: -50.7% [at 102 µM]"},
      {"smiles": "CCOC(=O)CNC1CC(=O)N(c2cccc(Cl)c2)C1=O", "note": "(stereo not given)", "Potency": "active: 10 µM"},
      {"smiles": "O=C(Nc1cccnc1)c1ccc2ccccc2c1O", "Potency": "inconclusive: 44.7 µM [inhibitor, partial curve, poor fit]"},
      {"smiles": "COc1ccc(S(=O)(=O)N(CCN2CCOCC2)Cc2cc(OC)ccc2OC)cc1", "Potency": "inconclusive: 3.98 µM [inhibitor, single point]"}
    ]}
  ]
}
